# Test results published in paper PMC4336329 (PLoS ONE, 2015).
# Out of some 310,000 compounds screened, about 14,000 (4.5%) showed an effect of 50% or more. The effect is printed as a negative number. The list shows a part of the results.
# Molecular target: human ether-à-go-go-related gene (hERG) potassium channel (human, UniProt Q12809)
# Test: primary screen, population patch clamp on CHO cells stably expressing hERG
# 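Also: peak tail current of the secondary pulse compared with the same well before compound.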
# Sequence of human ether-à-go-go-related gene (hERG) potassium channel (Q12809 whole entry, looked up): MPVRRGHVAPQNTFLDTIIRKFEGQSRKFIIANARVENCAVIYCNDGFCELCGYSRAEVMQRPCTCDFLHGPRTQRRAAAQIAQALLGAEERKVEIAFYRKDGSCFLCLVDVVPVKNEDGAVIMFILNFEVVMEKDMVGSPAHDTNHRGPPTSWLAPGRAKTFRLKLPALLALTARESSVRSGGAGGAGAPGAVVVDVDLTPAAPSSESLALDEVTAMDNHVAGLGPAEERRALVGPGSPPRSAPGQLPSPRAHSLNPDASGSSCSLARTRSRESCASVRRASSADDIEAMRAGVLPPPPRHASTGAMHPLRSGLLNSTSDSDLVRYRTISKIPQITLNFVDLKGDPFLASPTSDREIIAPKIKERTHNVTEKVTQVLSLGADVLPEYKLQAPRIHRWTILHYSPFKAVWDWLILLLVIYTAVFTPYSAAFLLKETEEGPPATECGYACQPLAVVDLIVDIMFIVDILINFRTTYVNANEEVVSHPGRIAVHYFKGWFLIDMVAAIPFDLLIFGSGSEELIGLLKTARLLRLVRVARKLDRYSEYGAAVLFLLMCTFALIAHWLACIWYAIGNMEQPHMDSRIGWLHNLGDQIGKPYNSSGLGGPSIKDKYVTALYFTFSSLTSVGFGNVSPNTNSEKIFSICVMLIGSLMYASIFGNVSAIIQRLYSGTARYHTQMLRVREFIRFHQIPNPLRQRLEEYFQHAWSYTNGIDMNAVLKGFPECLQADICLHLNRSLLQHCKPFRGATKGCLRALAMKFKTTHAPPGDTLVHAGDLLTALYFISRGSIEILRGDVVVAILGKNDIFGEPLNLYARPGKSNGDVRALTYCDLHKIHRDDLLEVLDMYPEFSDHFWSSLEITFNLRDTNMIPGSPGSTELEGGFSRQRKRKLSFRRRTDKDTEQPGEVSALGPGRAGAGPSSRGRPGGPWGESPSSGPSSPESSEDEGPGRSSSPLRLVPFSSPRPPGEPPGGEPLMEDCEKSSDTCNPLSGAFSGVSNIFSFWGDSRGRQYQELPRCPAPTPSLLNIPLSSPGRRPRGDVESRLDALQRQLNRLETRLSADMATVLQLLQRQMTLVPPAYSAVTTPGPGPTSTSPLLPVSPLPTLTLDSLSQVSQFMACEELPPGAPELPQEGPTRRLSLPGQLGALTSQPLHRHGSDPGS
row,SMILES,"hERG current change (%, negative = inhibition) at 10uM [%]"
1,N/C(=N\OC(=O)Cc1ccc([N+](=O)[O-])cc1)c1cccc(Br)c1,3.08
2,CN1CCN(c2ccc(NC(=O)COc3ccccc3Cl)cc2)CC1,-29.2
3,O=C(CNC(=O)c1ccc(Cl)cc1)N/N=C/C=C/c1ccccc1,5.4
4,C/C(=N\NC(=O)CSc1nc(C)cc(C)n1)c1ccc2c(c1)OCCO2,18.3
5,CC(CN1CCOCC1)OC(=O)c1ccccc1Cl.Cl (stereo not drawn),12
6,Cc1cccc(C)c1NC(=O)Cn1c(=O)n(CCCC(=O)NC2CCN(Cc3ccccc3)CC2)c(=O)c2ccccc21,-58.6
7,COc1cccc(/C(O)=C2/C(=O)C(=O)N(Cc3ccco3)C2c2ccncc2)c1 (stereo not drawn),15.2
8,O=C(Nc1ccc(S(=O)(=O)N2CCOCC2)cc1)c1ccc2c(c1)OCO2,-0.814
9,COc1ccc(OCc2nc3ccccc3n2C(C)C)cc1,-19
10,Cc1ccc(C)c(S(=O)(=O)NCCOC(=O)Nc2sc(=S)n(C)c2C)c1,-7.36
11,CCc1cc(C(=O)c2ccccc2OC)c(N)s1,-1.1
12,CCOC(=O)c1ccc(NC(=S)NCCc2ccccc2)cc1,4.14
13,CC(C)(C)SCCNC(=O)c1ccc(NS(C)(=O)=O)cc1,-16.6
14,O=C(O)CCC(=O)NNC(=O)CCCOc1ccc(Cl)cc1Cl,-15.3
15,COc1ccc2c(c1)CCc1cc(C(=O)O)sc1-2,-10
16,CCOc1ccc(N(CC(=O)NC2CCCC2)C(=O)CCC(=O)Nc2nccs2)cc1,2.94
17,CC1CCN(C(=O)c2ccc(NS(=O)(=O)c3cccc4cccnc34)cc2)CC1,-25.2
18,CO/N=C(\C(=O)N[C@@H]1C(=O)N2C(C(=O)[O-])=C(COC(C)=O)CS[C@H]12)c1csc(N)n1.[Na+],17.4
19,Cc1ccccc1OCc1nc2ccccc2c(=O)n1N,1.67
20,CN(CC(=O)Nc1ccc(F)cc1)CC(=O)N1CCCCC1,-1.35
21,CCOC(=O)c1c(NC(=O)C2C3C=CC(C3)C2C(=O)O)sc2c1CCC(CC)C2 (stereo not drawn),-30.6
22,CCOc1ccc(NC(=O)N2CCC(C(=O)c3ccc(F)cc3)CC2)cc1,-20.8

row,SMILES,"hERG current change (%, negative = inhibition) at 10uM [%]"
1,Cc1ccc(C)c(OCCn2cc(/C=C(\C#N)C(=O)NCc3ccco3)c3ccccc32)c1,9.8
2,CC1CCCC(C)N1c1ccc(S(=O)(=O)N2CCOCC2)cc1Cl (stereo not drawn),11.5
3,Br.CCOC(=O)CN1C2=NCCN2c2ccccc21,18.1
4,CCc1nnc(NC(=O)c2ccc3ccccc3n2)s1,1.35
5,CC(C)CNS(=O)(=O)c1cc(C(=O)OCC(=O)N(C)C2CCS(=O)(=O)C2)c(Cl)cc1Cl (stereo not drawn),-13
6,COc1ccc(NC(=O)CN(C)CC(=O)Nc2cccc(S(=O)(=O)N(C)c3ccccc3)c2)cc1,-18.4
7,Cc1ccnc2nc(C(=O)N3CCN(c4ccc(F)cc4)CC3)nn12,-17.7
8,Cc1ccc(S(=O)(=O)NCc2ccncc2)cc1,1.24
9,CCN(C(=O)COC(=O)c1c(C)nn(-c2ccccc2)c1C)C1CCS(=O)(=O)C1 (stereo not drawn),14.8
10,CCC(c1nnnn1CCOC)N1CCN(Cc2ccccc2OC)CC1.Cl (stereo not drawn),-6.05
11,CC1Sc2ccc(C(=O)O)cc2NC1=O (stereo not drawn),16.1
12,Cn1cc(/C=C2/SC(=O)N(CC(=O)Nc3ccc4c(c3)OCO4)C2=O)c2ccccc21,0.46
13,CCOC(=O)c1cc(C)sc1NC(=O)CSc1nccn1C,-19.9
14,Cc1ccc(C(=O)NCC(=O)OCC(=O)Nc2ccccc2[N+](=O)[O-])cc1,-34.3
15,CCCCCCn1cc(C(=O)O)c(=O)c2cc(F)c(N3CCN(C(=O)OCC)CC3)cc21,10.8
16,COc1ccccc1OCC(=O)Nc1ccc2c(c1)n(C)c(=O)n2C,4.41
17,CCOc1ccc(CCNC(=O)c2c(C)noc2C)cc1OCC,3.04
18,COc1cc(NC(=O)Cn2ncc3c2-c2ccccc2OC3)cc(OC)c1OC,-0.453
19,Cc1nc2ccccc2c(=O)n1-c1cc([N+](=O)[O-])cc([N+](=O)[O-])c1,5.95
20,COC(=O)c1cc2ccccn2c2c(C(=O)OC)c(C(=O)OC)cc1-2,20.1
21,CC(C(=O)N(C)C1CCS(=O)(=O)C1)N1C(=O)/C(=C/c2ccco2)SC1=S (stereo not drawn),-16.6
22,CCOC(=O)COc1c(OC)cc(Cl)cc1C1NC(=O)NC(C)=C1C(C)=O (stereo not drawn),-3.27

row,SMILES,"hERG current change (%, negative = inhibition) at 10uM [%]"
1,CN1CCNC(=O)C1CC(=O)NCC1(c2ccccc2)CCCCC1 (stereo not drawn),-0.148
2,CCC(C)Sc1nc(O)c(Cc2ccccc2)c(=O)[nH]1 (stereo not drawn),-5.35
3,CCOC(=O)c1c(NC(=O)N/N=C/c2ccc(O)c(OC)c2)sc(C(C)=O)c1C,12.4
4,O=C(Nc1nnc(-c2ccncc2)o1)C1CCCCC1,-1.8
5,CCCC(=O)Nc1c(C(=O)OCC)[nH]c2ccccc12,6.02
6,O=C(C(c1ccccc1)c1ccccc1)N1CC[C@@]2(O)CCCC[C@H]2C1,-0.742
7,Cc1nc2ccccc2c2oc(C(=O)NCCN3CCN(C)CC3)cc12,12.4
8,COc1ccc(N2C(=O)CC(Sc3nc(C)c4c(n3)CCCC4)C2=O)cc1 (stereo not drawn),-1.4
9,CN=C(NC1CCCCC1)c1ccc([N+](=O)[O-])cc1,1.68
10,Cc1c(OCC(=O)NCCCn2ccnc2)ccc2c3c(c(=O)oc12)CCC3,-26.7
11,COc1ccc2c(c1)-c1nc(/N=C/c3ccc(O)c(OC)c3)sc1CC2,-7.28
12,Cc1ccc(NC(=O)Cc2n[nH]c(=O)c3ccccc23)cc1S(=O)(=O)N1CCCCCC1,-51.5
13,CCOC(=O)c1c(C)nc(C)c(C(=O)OCC)c1-c1ccc(OC)cc1,-17.5
14,COc1ccc(N(CC(=O)NN=C2CCCCCCC2)S(=O)(=O)c2ccccc2)cc1,-4.46
15,Cc1snc(SCC(=O)N/N=C(\N)COc2cccc(C(F)(F)F)c2)c1C#N,-1.67
16,Cc1cc(N)ccc1NC(=O)CN1CCCC1,21.2
17,Cc1c(NC(=O)c2cnn3cccnc23)c(=O)n(-c2ccccc2)n1C,4.45
18,CCN1CCN(S(=O)(=O)c2cc(C(=O)O)ccc2Cl)CC1.Cl,-3.34
19,COCC(C)n1c(SCC(=O)NC(=O)Nc2ccc3c(c2)OCCO3)nc2ccccc2c1=O (stereo not drawn),2.16
20,C[C@H](NC(=O)NCCc1ccccc1)C(=O)O,7.24
21,O=C(Cn1cnnn1)Nc1ccccc1Cc1ccccc1,-0.266
22,COc1ccc(C2=NOC(Cn3nc(C(=O)NCc4ccc(C)cc4)cc3-c3ccccc3)C2)cc1 (stereo not drawn),2.68

row,SMILES,"hERG current change (%, negative = inhibition) at 10uM [%]"
1,O=C(Nc1ccc(Cl)cc1)N1CCSCC1,14
2,CSc1nc2c(ccc3ccccc32)o1,12.9
3,Cc1cc(C=C2C(=O)N(C)C(=O)N(C)C2=O)c(C)n1-c1ccccc1,17.5
4,CC(Sc1nnc(N)s1)C(=O)NCc1ccc2c(c1)OCO2 (stereo not drawn),0.709
5,Cc1ccc(CNC(=O)CCS(=O)(=O)c2ccc3c(c2)CC(C)N3C(=O)C2CC2)cc1 (stereo not drawn),2.43
6,CCCN1C(=O)C(O)(CC(=O)c2ccc3c(c2)OCCO3)c2ccccc21 (stereo not drawn),7.24
7,COc1cccc(CNS(=O)(=O)c2csc(C(N)=O)c2)c1,21.3
8,Cc1ccc(C)c(N2C(=O)CS/C2=N\NC(=O)c2ccccc2Cl)c1,2.58
9,CC(NC(=O)c1csc2ccccc12)C1CCCO1 (stereo not drawn),-0.0925
10,CCNC(=S)NNC(=O)c1ccccc1OC(F)F,-4.17
11,Cc1cccc2nc(CSc3nc4ccc([N+](=O)[O-])cc4[nH]3)c(Br)n12,-14
12,CCC1(C)N(O)C(C)(C)C(c2ccc(OC)cc2)=[N+]1[O-] (stereo not drawn),11.6
13,CN(C(=O)c1ccc(NC(=O)Cc2cccc(NC(=O)C3CCCN(C(=O)CCc4ccccc4)C3)c2)cc1)C1CCCC1 (stereo not drawn),5.46
14,CCOC(=O)[C@H]1[C@H]2COc3ccc(Cl)cc3[C@@H]2N2C(=O)CN(Cc3ccccc3)C(=O)[C@@]12C,-13.1
15,CCCOc1ccc(C(=O)N/N=C/c2c[nH]c3ccc(Br)cc23)cc1,22.1
16,O=C(COC(=O)/C=C/c1cccc(C(F)(F)F)c1)NCCN1C(=O)CSC1=O,-28.1
17,COc1ccc(N=C2SCC(=O)N2Cc2ccccc2)cc1,-14.5
18,CC(=O)N(C(C)=O)S(=O)(=O)c1ccc(N=NN2CCOCC2)cc1,9.21
19,COC(=O)CSc1nnc(CNS(=O)(=O)c2ccc(C)cc2)n1C,1.97
20,CN1CCc2c(sc(/N=C/c3c[nH]c4ccccc34)c2C#N)C1,-1.93
21,Cc1cc(NC(=O)CSc2nc(-c3ccc(F)cc3)cs2)no1,15.6
